Some of the results follow.

In the experiment the target is T1, OsWOX13 (Oryza sativa, UniProt Q5QMM3 1-267).
T1 sequence: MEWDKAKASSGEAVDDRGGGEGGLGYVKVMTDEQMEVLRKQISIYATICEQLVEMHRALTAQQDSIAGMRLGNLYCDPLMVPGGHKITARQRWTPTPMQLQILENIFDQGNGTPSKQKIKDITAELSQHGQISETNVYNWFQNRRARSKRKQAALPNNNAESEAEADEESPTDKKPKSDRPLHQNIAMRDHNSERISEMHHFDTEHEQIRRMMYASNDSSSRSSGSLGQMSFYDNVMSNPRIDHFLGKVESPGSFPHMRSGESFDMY
As to the kind of experiment: protein-binding microarray (RPBM); PBS, 2% BSA, 51.3 ng/ul salmon testes DNA, 50 uM zinc acetate, 200 nM TF, 25 C, 1 h; high values mean tight binding. The conditions noted are these: protein: recombinant; tags: N-terminal polyhistidine and DsRed monomer fusion (pET32a); label: CyDye5-dUTP incorporated in the synthesized complementary strand; 3' TTTTT single-stranded linker to array surface; dsDNA, one strand shown. The essentials: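 A custom Agilent array was converted to double-stranded form by primer extension with Cy5-dUTP and blocked with 2% BSA. Protein at 200 nM in PBS with 2% BSA, salmon testes DNA and 50 µM zinc acetate was applied for 1 h at 25 °C, followed by washing. The proteins were polyhistidine–DsRed N-terminal fusions of transcription factors, expressed in E. coli BL21-CodonPlus and Ni–NTA-purified. The binding signal is per-feature fluorescence intensity (arbitrary units) from an Axon 4000B scanner.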
Regarding “AATTTAAATTTTAAACTTACATTTAGAGTTAATTTTAAGGCGGAGTCACCTAGTGCAG”, the binding signal was 12900 fluorescence intensity (a.u.).
Turning to “TGTTAATTCCACATCAGCGCTACGTCAATGCCACGTGGTACGGAGTCACCTAGTGCAG”, the binding signal was 5690 fluorescence intensity (a.u.).
To “AACCAATCACCGGCCGCGAGCGTCACCCCGGAAAATATAACGGAGTCACCTAGTGCAG” belongs 12900 fluorescence intensity (a.u.).
For “ATAATGGATGTTGACAAAGTCGGTGGTATATTATTGAAACCGGAGTCACCTAGTGCAG”, the binding signal is 3940 fluorescence intensity (a.u.).
The value for “TGCTCAATTAACAAAGTTGATTAATCAGACTAGTAGAATCCGGAGTCACCTAGTGCAG” was 37000 fluorescence intensity (a.u.).
To “GCAGCTTTGATCATTTCAATCAGGTGATTCAGACCAAAGTCGGAGTCACCTAGTGCAG” belongs 10100 fluorescence intensity (a.u.); to “TAAAACTGATGCTAAACTTTCTAATCAAGCTATACCCATACGGAGTCACCTAGTGCAG”, 8680 fluorescence intensity (a.u.); to “GCAAACATAAAGTAATTTGTGAATATAATTTATATGTACTCGGAGTCACCTAGTGCAG”, 7640 fluorescence intensity (a.u.).
With “CCTCTAACAGCTGGATTGCTGCACATGTTTCCTGATTCCTCGGAGTCACCTAGTGCAG”, the binding signal was 3880 fluorescence intensity (a.u.).
Regarding “ACGAACATGTTTAATTAAGCACAGTTGTCTAGGCTTCAGCCGGAGTCACCTAGTGCAG”, the binding signal was 4100 fluorescence intensity (a.u.).
Take “GTCATGACTCATGAATGCCAATTTAGGCTAAATTCGGCGCCGGAGTCACCTAGTGCAG”: the binding signal is 5180 fluorescence intensity (a.u.).
As for “ACTTACAAAACTAATTACATAAATAAAAGCTAATTCACGACGGAGTCACCTAGTGCAG”, the binding signal is 4520 ± 107 fluorescence intensity (a.u.).
“GTGGCTTAATTGGATGAAGTTACTGTGGGGAAACAGGGCCCGGAGTCACCTAGTGCAG”: the binding signal was 34600 fluorescence intensity (a.u.).
Turning to “ACTCTGTCATCAACTTAATTGTTAGAAGCGACCTAAAGATCGGAGTCACCTAGTGCAG”, the binding signal is 22000 fluorescence intensity (a.u.).
As for “GTAAATAGAGTGGATGCGCTGCACGCGGTTGGGGATGGGTCGGAGTCACCTAGTGCAG”, the binding signal was 5730 fluorescence intensity (a.u.).
With “CTTCAATCAATTTCTCGCCCACAGATTAATTACACCAGCCCGGAGTCACCTAGTGCAG”, the binding signal was 35900 fluorescence intensity (a.u.).
To “TTAACCAATTATAACTAGCAATATGCCCAAGCTAACGCTACGGAGTCACCTAGTGCAG” belongs 3960 fluorescence intensity (a.u.); to “CACTGATGAAGTGATGACACTCCATGCATCCAATCCAGGCCGGAGTCACCTAGTGCAG”, 9860 fluorescence intensity (a.u.); to “ATCAAATTCAATCAAAACAATACTGACCGAATTAATGACCCGGAGTCACCTAGTGCAG”, 11700 fluorescence intensity (a.u.).
Consider “AACTATTAATTTGACATCTACTTCATATCGAACTATTATTCGGAGTCACCTAGTGCAG”, for which the binding signal is 9350 fluorescence intensity (a.u.).
Turning to “CAGTTTTCTTGATTTATAATCTGTTCCAATTGTTCAGGTGCGGAGTCACCTAGTGCAG”, the binding signal was 15100 fluorescence intensity (a.u.).
Turning to “GATTGATTGGATGACGCCAAGCGGCAAATCGTATCGAACCCGGAGTCACCTAGTGCAG”, the binding signal was 43600 fluorescence intensity (a.u.).
For the sequence “TAAATTGATTGTGTAGTAAGAGTTGCTCCGTTTTACGCGCCGGAGTCACCTAGTGCAG”, the binding signal is 49400 fluorescence intensity (a.u.).
To “TCCTCCGTTAACTGCTCGCTGAATTGGATAGCAGACTACGCGGAGTCACCTAGTGCAG” belongs 8100 fluorescence intensity (a.u.).
To “GAAACGAACGCGGGAATTGATAGATATGGGCCCCACCGGTCGGAGTCACCTAGTGCAG” belongs 6710 fluorescence intensity (a.u.); to “AGTCAAATTAGCCACGTAGATGCTACATCAGCTAAAACCGCGGAGTCACCTAGTGCAG”, 3530 fluorescence intensity (a.u.); to “GTAATTAGTTGTTTGATACCCGACGCATTATTTTATTATTCGGAGTCACCTAGTGCAG”, 3500 fluorescence intensity (a.u.).
For the sequence “CAATATAATTACATATATTGAAATATAAACTAGGAGTTGTCGGAGTCACCTAGTGCAG”, the binding signal is 26200 fluorescence intensity (a.u.).
As to “GGAAAGTGGACAATTAAATCAAGCGATGATGTGGATGTGGCGGAGTCACCTAGTGCAG”, the binding signal is 3570 fluorescence intensity (a.u.).
Regarding “ACCAGGCATAATAACTTGTAATTGATGTAATTTGATTCCACGGAGTCACCTAGTGCAG”, the binding signal was 18400 fluorescence intensity (a.u.).
Regarding “CTAACCGAATTGACCGAACAAAATTCGGTCTTTTACTGCCCGGAGTCACCTAGTGCAG”, the binding signal is 5480 fluorescence intensity (a.u.).
As for “CCACATGTCATTGTCACCTCCTAATTAACCCCGAAGGCAACGGAGTCACCTAGTGCAG”, the binding signal was 3360 fluorescence intensity (a.u.).
As to “TTTAATATTAAATTTAATGAAACTAATTTGGTGTTACAGACGGAGTCACCTAGTGCAG”, the binding signal was 28300 fluorescence intensity (a.u.).
For the sequence “AATATAATCTATCACAATTCACAAATGCTATAGAATTTCGCGGAGTCACCTAGTGCAG”, the binding signal was 3520 fluorescence intensity (a.u.).
Turning to “TATAAATTGCATATAAATTTGTTCCAAAATTTTCCCTCTTCGGAGTCACCTAGTGCAG”, the binding signal is 33000 fluorescence intensity (a.u.).
Regarding “TATGACATGCGAGGGGATTAATTAGAAGCCTGAGGTTGGACGGAGTCACCTAGTGCAG”, the binding signal is 4070 fluorescence intensity (a.u.).
With “TTGGACGCTAATTTGGAGTATTAAACATAGACTAGTAAAACGGAGTCACCTAGTGCAG”, the binding signal was 5910 fluorescence intensity (a.u.).
As to “ACAATTGATAGATTTGTCTGTTGCTTTGCTTTGATTCCTCCGGAGTCACCTAGTGCAG”, the binding signal is 43800 fluorescence intensity (a.u.).
In the case of “AAAATTGGGAACCATGATAGGTATAGAACGCAGCCTTACTCGGAGTCACCTAGTGCAG”, the binding signal was 6380 fluorescence intensity (a.u.).
Turning to “ATGATGGATGAAGATGGAACTGACATGTAGGTCGAACTCGCGGAGTCACCTAGTGCAG”, the binding signal is 7030 fluorescence intensity (a.u.).
For the sequence “GATCCGCTCAGTACACCGTAATTAATTGCCACATTTTAAACGGAGTCACCTAGTGCAG”, the binding signal was 4580 fluorescence intensity (a.u.).
As to “GAAATGTCAATCAAACTCGGTGTAAAGTTGAAGGGACGGTCGGAGTCACCTAGTGCAG”, the binding signal was 36800 fluorescence intensity (a.u.).

The record behind these values is publication PMC7819943, “Rice protein-binding microarrays: a tool to detect cis-acting elements near promoter regions in rice”.
